From a collection of fitness landscapes (doi:10.1016/j.celrep.2020.107928)
Over roughly 81,000 sequences, “one-hybrid fitness for binding NBS DNA” has its median near -0.1; the highest 2% begin near 0.36. This is one part of the list.

B1: Caulobacter ParB omega fusion; a variant is named by its letters at X, in order, B8GW30 (parent)
chain: MESVVVGEPGMSEGRRGLGRGLSALLGEVDAAPAQAPGEQLGGSREAPIEILQRNPDQPRRTFREEDLEDLSNSIREKGVLQPILVRPSPDTAGEYQIVAGERAWRAAQRAGLKTVPIMVRELDDLAVLEIGIIENVQRADLNVLEEALSYKVLMEKFERTQENIAQTIGKSXSHVANXMRLLXLPDEVQSYLVSGELTAXHARAIAAAADPVALAKQIIEGGLSVRETEALARKAPNLSAGKSKGGRPPRVKDTDTQALESDLSSVLGLDVSIDHRGSTGTLTITYATLEQLDDLCNRLTRGI

Variants of: B1
Experiment: one-hybrid fitness for binding NBS DNA (the Noc-binding site; scaled: cognate 1, non-cognate 0); higher = stronger binding
Settings: with NBS DNA site
Procedure, shortened: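 On M9-minus-histidine containing 0.1 mM IPTG and 5 mM 3-AT, E. coli USO cells with a HIS3 reporter, site 19 bp from the promoter, grew 48 hours at 37°C to select Caulobacter ParB libraries randomised at four specificity codons. Plasmids from before and after were Illumina-sequenced, with three replicate libraries pooled and variants under 10 reads left out. Fitness is the log change in variant-to-wild-type read ratio, rescaled against cognate and non-cognate.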

one-hybrid fitness for binding NBS DNA, 0.335:
QYFT

one-hybrid fitness for binding NBS DNA, 0.27:
QSPR

one-hybrid fitness for binding NBS DNA, ≤ 0.2:
AHSW
GLWL
VTNE
TLHQ
CTFS
RTDN
PNFF
RLPV
SKTG
NWHR
GAKE
AMEY
YCLG
TRHI
QNAG
TELP
EINT
QPKM
TSLC
RHYM
YLYT
RMQD
KIRT
PRCR
MNTM
CTDF
YSEV
RYHY
PIKV
RADD
KSIH
ARQV
RNCS
LQWG
KPKS
SPPQ
PSAH
QWDT
CNKV
SGRC
PSET
NEDC
AQEG
QGIY
MQNE
ETSV
KYCG
PLII
APAA
KREV
IDNF
YCHR
TTSN
NWSR
PLCD
PPLK
SFGC
SCSC
PSFF
HMTN
QKVA
KVGM
NFDN
WACP
RIYH
ELPC
ANPL
MALM
LPNY
HYRN
MMPS
GSLR
IQLW
TYHY
RTEK
RFAF
VISC
IKGT
TIHA
GVLF
EEAS
LAWR
DPER
VGRS
RDTE
VHCW
TTGW
QVGI
ADDY
RKNK
IVTV
KPPR
NDQM
MSLQ
IKAG
NVHC
LKLM
FMEL
MAHK
SKSM
KIRE
SHRI
MLLT
HEAY
GVHD
INKE
THMI
CRLW
RDDS
NPRL
EVSS
NTIC
NLHR
NPDE
HHSN
KKKW
ERKS
CHET
GPRY
SEPE
LTLN
SFSP
AVLC
YLPQ
RCTL
CWNE
EIAH
PKVG
GKHY
SYRW
RNKF
YMWS
MCPA
PSVR
CVSN
KRPL
DCPW
YAIR
NDHF
IVRT
WDLG
GQYA
IKIG
KVHG
ATRL
THHK
RCCD
REKS
CVRA
TKMG
SRKY
CVDQ
KDTG
QYGC
SSCF
ISKC
PGKH
LRLS
SKCT
ASKA
IQPF
AWSD
NNDR
QAAC
EAIC
LDYL
GNLM
ILES
PWHS
ASEA
RYEF
QFNM
NWAG
KNLC
NNTW
KPHT
IVSS
QLLS
EFMW
SLSD
VVPG
ITNA
SCYP
RLNV
GSLN
PLLA
RYPV
LQAS
FTDL
TVVS
NTLM
QKFF
HFME
GPRN
KKDH
VFNG
LTCT
FNHT
IKCW
RWCL
NHSI
SQSR
IASS
VYLR
MDSV
PTPE
YCKL
GAEV
HRFD
SLLS
TEFE
SMSQ
WHKR
MRSP
FWRT
QWKY
AMFT
HNRS
MYVS
APGK
TLRV
LTLE
PHFL
KTQE
HNLP
KRNW
YTYS
CLNL
GAVS
DPIS
DRLY
NDKG
KYIG
SIRL
HVMC
SFDD
CMHK
EVAL
ETVT
TNQL
QLCG
CNKG
RKNQ
TFSL
KTPL
KICG
SMVI
IILT
GRYC
PKFG
AVNT
ILCC
MVVV
YGPS
RWRV
TCTC
GMCV
RDIV
DGKN
QVCL
CRKG
STTR
LPYD
ADSW
SNRA
RFEE
RHEG
TKYL
PAHH
PHPD
VGSM
SKEK
HAGS
HLSW
GVPY
MDCE
RNTQ
EFPC
PSRM
EQQS
GERF
AKRK
PQKL
TRGG
GILP
HYAR
QAHE
ASNL
MLDC
LMKG
YETE
DHHF
DLRA
LSQI
HNLM
QWMT
SDNR
TSNT

one-hybrid fitness for binding NBS DNA, 0.384:
QCRD

one-hybrid fitness for binding NBS DNA, 0.446:
QYQT

one-hybrid fitness for binding NBS DNA, 0.513:
KRQT

one-hybrid fitness for binding NBS DNA, 0.58:
RRDS

one-hybrid fitness for binding NBS DNA, 0.213:
KMRL

one-hybrid fitness for binding NBS DNA, 0.377:
QICR
